Assay results published in PubChem BioAssay AID1963576 (National Center for Advancing Translational Sciences (NCATS), 2024).
About 60 (0.1%) of roughly 46,000 compounds were called active. Inconclusive results (about 3%) are left out. The call rests on the fitted dose curve; in most records, active means well fitted inhibition curve with a large enough effect; inconclusive means small, poorly fitted or top-dose-only effect; inactive means no such curve, though single readings can be large or run the other way. Some of the results follow.

Experiment: Primary qHTS assay for Inhibitors of ovarian cancer metastasis using an organotypic tumor microenvironment (TME) model. Further: nearly all actives have a fitted effect of over 65% in size.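 On activity change, negative = inhibition: plate controls were DMSO wells for no effect and tomatine positive control wells for full effect.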
Conditions: SKOV3ip1-GFP adhesion/invasion on 3D omental model, fluorescence; series mostly up to 45.8 µM; activity change, negative = inhibition: at the top concentration
Summary of the method: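 Adhesion/invasion was scored as fixed GFP-labeled SKOV3ip1 cell counts (488/509 nm), normalized to DMSO and tomatine controls. Cancer cells in serum-free medium, with four compound doses (0.36-46 umol/L), sat 2 hr at RT then 16 hr at 37 C on a 48 hr fibroblast/mesothelial/ECM culture.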
For `O=C(NCc1ccccc1Cl)c1cc(-c2ccccc2)n[nH]1`, the “activity change, negative = inhibition” value was inactive: -7.07%. With `COCCn1c(CCC(=O)Nc2ccc(OC)c(OC)c2)nc2cccnc21` the “activity change, negative = inhibition” value was inactive: 1.81%. In the case of `CCc1ccc(NC(=O)N2CCN(c3nnc(C)c4c(C)n(-c5ccc(Cl)cc5)nc34)CC2)cc1`, the “activity change, negative = inhibition” value is reported as inactive: -1.48%. In the case of `COc1cccc(NC(=O)c2csc3c2CCCCC3)c1`, the “outcome” value is reported as “inactive”. For `Cc1cc(C)cc(NC(=O)CSc2nccn2C2CCCC2)c1`, the “activity change, negative = inhibition” value was inactive: 2.17%. With `COc1cccc(C2C(C(N)=O)=C(C)Nc3nc(CCCO)nn32)c1` (stereo unspecified) the “activity change, negative = inhibition” value was inactive: 8.39%. With `COc1cccc(CNC(=O)Cc2c(C)c3cc4c(C)coc4cc3oc2=O)c1` the “outcome” value was “inactive”. In the case of `COc1ccc(CN(C(=O)Nc2cc(C)ccc2C)C2CCN(C(C)=O)CC2)cc1`, the “activity change, negative = inhibition” value is reported as inactive: 2.19%. For `CCOc1cccc(CC(=O)NCc2ccc3c(c2)CCN3C(=O)c2cccc(C)c2)c1OCC`, the “activity change, negative = inhibition” value was inactive: -8%. In the case of `COc1cc(NS(=O)(=O)c2ccc(NC(=O)COc3ccc(Cl)cc3Cl)cc2)nc(OC)n1`, the “activity change, negative = inhibition” value is reported as inactive: -0.428%. For `COc1ccc2c(c1)c(=O)c(S(=O)(=O)c1ccc(F)cc1)cn2CC(=O)Nc1ccc(C)cc1C`, the “activity change, negative = inhibition” value was inactive: -6.06%. For `CCN1C(=O)c2ccccc2Sc2ccc(NC(=O)Cc3ccc(OC)c(OC)c3)cc21`, the “activity change, negative = inhibition” value was inactive: -0.347%. With `c1ccc(Nc2c(-c3ccccc3)nc3ncccn23)cc1` the “activity change, negative = inhibition” value was inactive: 19.1%. With `O=C(CCNS(=O)(=O)c1ccc(Br)s1)Nc1ccc(Br)cc1` the “activity change, negative = inhibition” value was inactive: -7.32%. In the case of `Cc1ccc(CNCc2ccc3c(c2)n(C)c(=O)n3C)cc1`, the “activity change, negative = inhibition” value is reported as inactive: 12.7%. For `CCOc1ccc2nc(N(Cc3cccnc3)C(=O)c3ccco3)sc2c1`, the “activity change, negative = inhibition” value was inactive: -7.46%. In the case of `O=C(c1cc(S(=O)(=O)N2CCCC2)c[nH]1)N1CCN(c2cccc(Cl)c2)CC1`, the “activity change, negative = inhibition” value is reported as inactive: -5.48%. For `CCC(CC)C(=O)N1CCc2cc(OC)c(OC)cc2C1COc1ccc2c(C)cc(=O)oc2c1` (stereo unspecified), the “activity change, negative = inhibition” value was inactive: 1.85%. In the case of `O=C(NCc1ccccc1Cl)C(=O)NCC(c1ccc2c(c1)OCO2)N1CCOCC1` (stereo unspecified), the “activity change, negative = inhibition” value is reported as inactive: 10.7%. For `COc1ccc(CNC(=O)c2cnc3sc4cc(OC)ccc4n3c2=O)cc1`, the “activity change, negative = inhibition” value was inactive: 6.21%. With `CCOc1ccc(NC(=O)CSc2nc(-c3ccccc3)c3cc(OCC)ccc3n2)cc1` the “activity change, negative = inhibition” value was inactive: 8.25%. In the case of `CCOc1ccccc1N(CC)C(=O)Cn1ncc2c1-c1ccccc1OC2`, the “activity change, negative = inhibition” value is reported as inactive: 1.66%. With `Cc1cc(Cl)ccc1NC(=O)CCS(=O)(=O)c1ccc2c(c1)CC(C)N2C(=O)C1CC1` (stereo unspecified) the “activity change, negative = inhibition” value was inactive: -1.86%. In the case of `COc1ccc(CNC(=O)CCS(=O)(=O)c2cc3c4c(c2)CCN4C(=O)CC3)cc1OC`, the “activity change, negative = inhibition” value is reported as inactive: -2.46%. With `CCCSc1ncc(Cl)c(C(=O)NCc2ccc(C)cc2)n1` the “outcome” value was “inactive”. In the case of `Cc1c(C(=O)N2CCCC2)oc2c1-c1nn(CC(=O)NCc3ccccc3F)cc1CC2`, the “activity change, negative = inhibition” value is reported as inactive: -16.4%. With `CCOC(=O)c1c(C)[nH]c(CCC(=O)NCc2cc(Br)ccc2OC)c1C` the “outcome” value was “inactive”. With `O=C(Nc1cc(Cl)ccc1O)c1cc(-c2ccc3c(c2)OCO3)on1` the “activity change, negative = inhibition” value was inactive: -6.21%. With `COc1ccc(C2C(C(=O)Nc3cccnc3)=C(C)Nc3nc(-c4ccc(OC)c(OC)c4)nn32)cc1` (stereo unspecified) the “activity change, negative = inhibition” value was inactive: 2.05%. For `Cc1ccc(S(=O)(=O)c2nnn3c2nc(N(C)Cc2ccccc2)c2cc(Cl)ccc23)cc1C`, the “activity change, negative = inhibition” value was inactive: -17.2%. For `COc1ccc(-c2nc(CSCC(=O)NCCc3ccc(OC)c(OC)c3)c(C)o2)cc1`, the “activity change, negative = inhibition” value was inactive: 13.8%. For `CCc1nn2c(=O)c(S(=O)(=O)Nc3ccc(C)cc3C)c(C)nc2s1`, the “outcome” value was “inactive”. With `COc1ccccc1CNC(=O)c1cc2cccc3c2n1CCS3` the “activity change, negative = inhibition” value was inactive: 6.25%. In the case of `CC(C)NC(=O)C1=CC(c2ccc3c(c2)OCO3)=NS(=O)(=O)N1C`, the “activity change, negative = inhibition” value is reported as inactive: 8.82%. For `CC1CCN(c2nc3ccccc3nc2SCC(=O)Nc2ccccc2C(C)C)CC1`, the “activity change, negative = inhibition” value was inactive: -8.78%. With `CCCN1CCN(c2ncnc3sc(C(=O)Nc4ccc(OC(F)(F)F)cc4)c(C)c23)CC1` the “activity change, negative = inhibition” value was inactive: -28.1%. With `Cc1nnc(N2CCCC(C(=O)Nc3cc(F)ccc3F)C2)c2nn(-c3ccccc3)c(C)c12` (stereo unspecified) the “activity change, negative = inhibition” value was inactive: -8.41%. With `CCOc1ccc(CCNC(=O)c2cc3n(n2)CCCN(Cc2ccc(C)cc2)C3=O)cc1OCC` the “activity change, negative = inhibition” value was inactive: -7.35%. For `Cc1cc(-c2ccc(C)c(S(=O)(=O)Nc3ccc(C)c(N(C)C)c3)c2)on1`, the “activity change, negative = inhibition” value was inactive: -2.6%. For `O=C(NC1(C(F)(F)F)N=C(c2ccccc2)N(Cc2ccccc2)C1=O)c1ccc(F)cc1` (stereo unspecified), the “activity change, negative = inhibition” value was inactive: 7.42%. For `CCCCC(=O)OCc1cc(=O)n2nc(C3CC3)sc2n1`, the “activity change, negative = inhibition” value was inactive: 4.1%. In the case of `CCOc1ccc(C(=O)c2cn(CC(=O)Nc3ccc(C)c(Cl)c3)c3ccc(OCC)cc3c2=O)cc1`, the “outcome” value is reported as “inactive”. In the case of `COc1cc(NC(=O)COCc2cc(-c3ccc4c(c3)OCO4)on2)c(OC)cc1Cl`, the “outcome” value is reported as “inactive”. For `CC(=O)c1ccc(NC(=O)Cn2c(=O)nc(-c3ccccc3)c3ccccc32)cc1`, the “activity change, negative = inhibition” value was inactive: -7.72%. For `O=C(CS(=O)(=O)c1cccc2nsnc12)N1CCN(c2ccc(F)cc2)CC1`, the “outcome” value was “inactive”. In the case of `CC1CCN(S(=O)(=O)c2ccc3c(c2)N(CC(=O)N(C)Cc2ccccc2)C(=O)CO3)CC1`, the “activity change, negative = inhibition” value is reported as inactive: -3.53%. In the case of `CCN(CC)c1cc(NC2CCCCC2)c2c3c(onc13)-c1ccccc1C2=O`, the “activity change, negative = inhibition” value is reported as inactive: 1.23%. For `Cn1cnc(S(=O)(=O)N2CCC(C(=O)Nc3ccc(OC(F)(F)F)cc3)CC2)c1`, the “activity change, negative = inhibition” value was inactive: -6.8%. In the case of `O=C(CCCc1nc(-c2ccc(Cl)cc2)no1)NCc1ccco1`, the “activity change, negative = inhibition” value is reported as inactive: -2.57%. For `CCCCN1C(C(=O)c2ccccc2)=C(OC(=O)CC)c2ccccc2S1(=O)=O`, the “activity change, negative = inhibition” value was inactive: -19.7%. For `COc1cc(C2c3c(-c4ccccc4O)n[nH]c3C(=O)N2Cc2ccncc2)cc(OC)c1OC` (stereo unspecified), the “outcome” value was “inactive”. With `Cc1cc(C)c(NC(=O)Cn2nnc3sc4c(c3c2=O)CCC(C(C)(C)C)C4)c(C)c1` (stereo unspecified) the “activity change, negative = inhibition” value was inactive: 2.87%. With `O=C(c1ccc2c(c1)N(Cc1ccccc1)C(=O)c1ccccc1S2(=O)=O)N1CCC(Cc2ccccc2)CC1` the “activity change, negative = inhibition” value was inactive: 20.9%. In the case of `COc1cccc(CNC(=O)C2CCCN(c3nn4cc(-c5ccc(C)cc5)nc4s3)C2)c1` (stereo unspecified), the “activity change, negative = inhibition” value is reported as inactive: -2.84%. For `Cc1ccccc1CN1C(=O)C(O)(c2c[nH]c3ccccc23)c2cc(Cl)ccc21` (stereo unspecified), the “activity change, negative = inhibition” value was inactive: -24%. With `O=c1c2sc3ccccc3c2n(Cc2cccc(Cl)c2)c(=O)n1Cc1ccc(F)cc1` the “activity change, negative = inhibition” value was inactive: 2.99%. With `CCc1cc(C(=O)N2CCN(c3ccccc3)CC2)no1` the “activity change, negative = inhibition” value was inactive: 23.7%. With `O=C(NCc1ccc(Cl)cc1)c1cc2cccc3c2n1CCS3` the “activity change, negative = inhibition” value was inactive: -1.25%. With `CC1CCCN(C(=O)c2ccc(CSc3nc4ccncc4n3Cc3ccccc3)cc2)C1` (stereo unspecified) the “outcome” value was “inactive”. For `COc1ccc(CNC(=O)C2CCN(C(=O)N3CCOc4ccc(C)cc43)CC2)cc1`, the “activity change, negative = inhibition” value was inactive: -0.914%. In the case of `COC(=O)c1sccc1S(=O)(=O)N(CC(=O)NCc1ccc(F)cc1)c1ccccc1`, the “activity change, negative = inhibition” value is reported as inactive: 18.3%.
